# Source: paper PMC6208778, “eIF2A, an initiator tRNA carrier refractory to eIF2α kinases, functions synergistically with eIF5B” (Cellular and Molecular Life Sciences: CMLS, 2018)
# Amino acid sequences for entries named in this document (tags omitted).
# UniProt P11940: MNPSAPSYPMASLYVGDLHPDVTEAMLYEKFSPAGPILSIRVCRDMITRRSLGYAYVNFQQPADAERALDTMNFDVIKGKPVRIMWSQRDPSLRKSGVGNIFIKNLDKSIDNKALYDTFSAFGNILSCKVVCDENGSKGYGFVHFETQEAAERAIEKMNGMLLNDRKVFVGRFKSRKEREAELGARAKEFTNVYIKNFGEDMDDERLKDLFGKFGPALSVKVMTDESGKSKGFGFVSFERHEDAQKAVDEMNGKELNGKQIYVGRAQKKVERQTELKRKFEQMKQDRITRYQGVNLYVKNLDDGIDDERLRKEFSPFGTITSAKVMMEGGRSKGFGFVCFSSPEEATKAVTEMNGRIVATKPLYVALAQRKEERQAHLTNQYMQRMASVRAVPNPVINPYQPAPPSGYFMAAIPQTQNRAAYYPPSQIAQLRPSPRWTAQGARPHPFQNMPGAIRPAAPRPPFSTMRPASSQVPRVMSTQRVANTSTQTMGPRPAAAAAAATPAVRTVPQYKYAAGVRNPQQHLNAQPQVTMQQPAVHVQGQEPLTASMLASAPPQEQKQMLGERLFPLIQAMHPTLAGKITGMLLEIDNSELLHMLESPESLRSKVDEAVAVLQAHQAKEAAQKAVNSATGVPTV
# Results are given in words; binding and its absence hold for the method and conditions named. For part of these data: In cells and extracts the contact can be indirect. Some results given as binding are weak or reduced against the parent protein; the word gives no strength. Tags and fused reporters may be left off the sequences shown.
# T1: Flag-tagged eIF2A (462–585) (human) (UniProt Q9BY44)
# T1 sequence: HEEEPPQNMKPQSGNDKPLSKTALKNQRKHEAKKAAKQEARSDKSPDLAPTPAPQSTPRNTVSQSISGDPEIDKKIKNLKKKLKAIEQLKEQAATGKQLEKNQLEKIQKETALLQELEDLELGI
# T2: Flag-tagged eIF2A (1–501) (human) (UniProt Q9BY44)
# T2 sequence: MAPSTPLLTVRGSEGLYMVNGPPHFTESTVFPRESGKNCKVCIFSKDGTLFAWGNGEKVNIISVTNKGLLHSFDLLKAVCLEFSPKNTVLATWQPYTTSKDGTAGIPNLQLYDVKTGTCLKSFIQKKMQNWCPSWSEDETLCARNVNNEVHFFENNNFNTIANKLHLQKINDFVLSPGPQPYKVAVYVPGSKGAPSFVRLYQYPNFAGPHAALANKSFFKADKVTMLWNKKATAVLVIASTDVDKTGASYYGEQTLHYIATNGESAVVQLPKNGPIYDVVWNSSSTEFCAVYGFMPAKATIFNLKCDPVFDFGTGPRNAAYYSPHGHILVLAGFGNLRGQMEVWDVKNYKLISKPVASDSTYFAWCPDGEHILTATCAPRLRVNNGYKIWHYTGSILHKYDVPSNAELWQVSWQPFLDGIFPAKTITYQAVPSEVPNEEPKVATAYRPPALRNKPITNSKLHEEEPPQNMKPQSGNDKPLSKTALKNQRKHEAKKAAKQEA
# T3: Flag-eIF2A (Δ462–501) (human) (UniProt Q9BY44)
# T3 sequence: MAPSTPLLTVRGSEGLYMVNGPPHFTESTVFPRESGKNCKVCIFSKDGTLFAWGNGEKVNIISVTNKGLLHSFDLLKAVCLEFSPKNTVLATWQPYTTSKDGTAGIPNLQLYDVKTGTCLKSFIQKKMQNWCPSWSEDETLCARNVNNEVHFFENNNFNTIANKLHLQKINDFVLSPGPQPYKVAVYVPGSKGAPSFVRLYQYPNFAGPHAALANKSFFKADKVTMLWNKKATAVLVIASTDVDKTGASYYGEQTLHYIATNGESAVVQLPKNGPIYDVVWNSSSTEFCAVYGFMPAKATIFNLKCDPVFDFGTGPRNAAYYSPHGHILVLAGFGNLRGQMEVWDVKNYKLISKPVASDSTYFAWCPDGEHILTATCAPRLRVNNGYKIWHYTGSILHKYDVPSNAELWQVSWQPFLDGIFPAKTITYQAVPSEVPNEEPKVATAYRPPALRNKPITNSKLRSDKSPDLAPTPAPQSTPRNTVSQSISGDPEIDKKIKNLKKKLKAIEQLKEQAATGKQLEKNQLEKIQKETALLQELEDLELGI
# T4: Flag-tagged full-length eIF2A (residues 1–585) (human) (UniProt Q9BY44)
# T4 sequence: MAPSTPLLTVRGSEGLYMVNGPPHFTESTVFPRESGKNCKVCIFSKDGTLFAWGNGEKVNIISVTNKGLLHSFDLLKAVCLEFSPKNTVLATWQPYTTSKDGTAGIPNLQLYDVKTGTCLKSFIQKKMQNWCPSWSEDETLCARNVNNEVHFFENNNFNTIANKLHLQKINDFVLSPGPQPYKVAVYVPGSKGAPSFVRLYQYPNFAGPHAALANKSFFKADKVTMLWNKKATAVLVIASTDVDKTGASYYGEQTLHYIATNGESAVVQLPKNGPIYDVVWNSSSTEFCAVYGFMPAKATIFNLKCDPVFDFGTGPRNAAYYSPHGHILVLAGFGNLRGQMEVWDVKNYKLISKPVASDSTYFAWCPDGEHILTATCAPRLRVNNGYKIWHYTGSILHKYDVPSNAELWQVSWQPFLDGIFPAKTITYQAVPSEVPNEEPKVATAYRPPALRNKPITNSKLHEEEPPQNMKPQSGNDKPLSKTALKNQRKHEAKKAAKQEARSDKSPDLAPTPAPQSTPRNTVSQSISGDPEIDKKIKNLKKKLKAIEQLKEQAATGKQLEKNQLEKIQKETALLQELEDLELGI
# T5: Flag-tagged eIF2A (1–480) (human) (UniProt Q9BY44)
# T5 sequence: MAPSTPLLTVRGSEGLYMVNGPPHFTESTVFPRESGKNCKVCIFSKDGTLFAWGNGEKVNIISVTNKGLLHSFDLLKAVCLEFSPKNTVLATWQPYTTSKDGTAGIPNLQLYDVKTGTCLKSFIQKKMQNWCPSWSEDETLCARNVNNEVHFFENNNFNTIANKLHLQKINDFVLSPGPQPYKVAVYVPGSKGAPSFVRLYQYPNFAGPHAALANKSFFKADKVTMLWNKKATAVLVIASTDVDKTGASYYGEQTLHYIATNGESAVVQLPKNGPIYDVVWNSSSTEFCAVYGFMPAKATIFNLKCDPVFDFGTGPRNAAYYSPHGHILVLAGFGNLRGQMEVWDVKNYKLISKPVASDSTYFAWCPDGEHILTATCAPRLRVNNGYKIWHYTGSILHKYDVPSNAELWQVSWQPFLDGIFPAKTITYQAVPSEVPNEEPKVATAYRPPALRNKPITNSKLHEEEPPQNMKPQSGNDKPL
# Assays:
# GST–PABP = GST–PABP (UniProt P11940); experiment: pull-down; GST pull-down with recombinant proteins purified from E. coli extracts; GST fusions as bait, His–eIF2A detected by western blotting with anti-His; both purified
# [1] = target: T1, Flag-tagged eIF2A (462–585) (human); experiment: co-IP; lysates of 293FT cells expressing Flag-tagged eIF2A derivatives; anti-Flag M2 affinity gel, 4 °C, 2 h, buffer A (0.1% NP-40, 40 mM HEPES–KOH pH 7.5, 100 mM KCl, 1 mM EDTA); endogenous eIF5B detected by western blotting
# [2] = target: T2, Flag-tagged eIF2A (1–501) (human); experiment: as above
# [3] = target: T3, Flag-eIF2A (Δ462–501) (human); experiment: as above
# [4] = target: T4, Flag-tagged full-length eIF2A (residues 1–585) (human); experiment: as above
# [5] = target: T5, Flag-tagged eIF2A (1–480) (human); experiment: as above
binding (GST–PABP),binding [1],binding [2],binding [3],binding [4],binding [5],Binder
no binding,,,,,,"His-tagged eIF2A (natural protein, human, UniProt Q9BY44 1-585, looked up, eukaryotic initiation factor 2A (eIF2A); also called His–eIF2A; eukaryotic initiation factor 2A; source: E. coli M15 (plasmid pQE31/His–eIF2A), purified) MAPSTPLLTVRGSEGLYMVNGPPHFTESTVFPRESGKNCKVCIFSKDGTLFAWGNGEKVNIISVTNKGLLHSFDLLKAVCLEFSPKNTVLATWQPYTTSKDGTAGIPNLQLYDVKTGTCLKSFIQKKMQNWCPSWSEDETLCARNVNNEVHFFENNNFNTIANKLHLQKINDFVLSPGPQPYKVAVYVPGSKGAPSFVRLYQYPNFAGPHAALANKSFFKADKVTMLWNKKATAVLVIASTDVDKTGASYYGEQTLHYIATNGESAVVQLPKNGPIYDVVWNSSSTEFCAVYGFMPAKATIFNLKCDPVFDFGTGPRNAAYYSPHGHILVLAGFGNLRGQMEVWDVKNYKLISKPVASDSTYFAWCPDGEHILTATCAPRLRVNNGYKIWHYTGSILHKYDVPSNAELWQVSWQPFLDGIFPAKTITYQAVPSEVPNEEPKVATAYRPPALRNKPITNSKLHEEEPPQNMKPQSGNDKPLSKTALKNQRKHEAKKAAKQEARSDKSPDLAPTPAPQSTPRNTVSQSISGDPEIDKKIKNLKKKLKAIEQLKEQAATGKQLEKNQLEKIQKETALLQELEDLELGI"
,binds,binds,no binding,binds,no binding,"endogenous eIF5B (protein, UniProt O60841 1-1220) MGKKQKNKSEDSTKDDIDLDALAAEIEGAGAAKEQEPQKSKGKKKKEKKKQDFDEDDILKELEELSLEAQGIKADRETVAVKPTENNEEEFTSKDKKKKGQKGKKQSFDDNDSEELEDKDSKSKKTAKPKVEMYSGSDDDDDFNKLPKKAKGKAQKSNKKWDGSEEDEDNSKKIKERSRINSSGESGDESDEFLQSRKGQKKNQKNKPGPNIESGNEDDDASFKIKTVAQKKAEKKERERKKRDEEKAKLRKLKEKEELETGKKDQSKQKESQRKFEEETVKSKVTVDTGVIPASEEKAETPTAAEDDNEGDKKKKDKKKKKGEKEEKEKEKKKGPSKATVKAMQEALAKLKEEEERQKREEEERIKRLEELEAKRKEEERLEQEKRERKKQKEKERKERLKKEGKLLTKSQREARARAEATLKLLQAQGVEVPSKDSLPKKRPIYEDKKRKKIPQQLESKEVSESMELCAAVEVMEQGVPEKEETPPPVEPEEEEDTEDAGLDDWEAMASDEETEKVEGNKVHIEVKENPEEEEEEEEEEEEDEESEEEEEEEGESEGSEGDEEDEKVSDEKDSGKTLDKKPSKEMSSDSEYDSDDDRTKEERAYDKAKRRIEKRRLEHSKNVNTEKLRAPIICVLGHVDTGKTKILDKLRHTHVQDGEAGGITQQIGATNVPLEAINEQTKMIKNFDRENVRIPGMLIIDTPGHESFSNLRNRGSSLCDIAILVVDIMHGLEPQTIESINLLKSKKCPFIVALNKIDRLYDWKKSPDSDVAATLKKQKKNTKDEFEERAKAIIVEFAQQGLNAALFYENKDPRTFVSLVPTSAHTGDGMGSLIYLLVELTQTMLSKRLAHCEELRAQVMEVKALPGMGTTIDVILINGRLKEGDTIIVPGVEGPIVTQIRGLLLPPPMKELRVKNQYEKHKEVEAAQGVKILGKDLEKTLAGLPLLVAYKEDEIPVLKDELIHELKQTLNAIKLEEKGVYVQASTLGSLEALLEFLKTSEVPYAGINIGPVHKKDVMKASVMLEHDPQYAVILAFDVRIERDAQEMADSLGVRIFSAEIIYHLFDAFTKYRQDYKKQKQEEFKHIAVFPCKIKILPQYIFNSRDPIVMGVTVEAGQVKQGTPMCVPSKNFVDIGIVTSIEINHKQVDVAKKGQEVCVKIEPIPGESPKMFGRHFEATDILVSKISRQSIDALKDWFRDEMQKSDWQLIVELKKVFEII"
